The RNAGym collection of RNA variant scans (doi:10.7554/elife.90254)
The source gives no read counts; variants with many changes may rest on few reads.

B1: LINE1-mini (parent)
chain: GGCAGAGCUCAACACAGCGUGGCAAAGUGGCUGUGGCUAGACUGCC

Variants of: B1
Test: self-cleavage, relative activity (ratio to wild type); higher = more cleavage; in vitro, sequencing; the parent is a self-cleaving ribozyme

| Variant | self-cleavage |
| --- | --- |
| G1C C42G G44C | 0 |
| G1C G2A A11G A26G U43A | 0 |
| G1C G2A A12G C23U | 0.03 |
| G1C G2A A14C G35U | 0.03 |
| G1C G2A A25C C37U | 0.06 |
| G1C G2A C3U A11G G29U G30A C42G | 0.02 |
| G1C G2A C10A C42A | 0.02 |
| G1C G2A C10U C13A | 0.06 |
| G1C G2A C13U C31G | 0.03 |
| G1C G2A C23U A25U C46A | 0.4 |
| G1C G2A C37U | 0.05 |
| G1C G2A G5U U9C | 0.01 |
| G1C G2A G7C A25G | 0.1 |
| G1C G2A G17U | 0.01 |
| G1C G2A G19A C45U | 0.39 |
| G1C G2A G19C C31G U43A | 0.07 |
| G1C G2A G27C C45A | 0.17 |
| G1C G2A G33A C45G | 0.05 |
| G1C G2A G36U | 0 |
| G1C G2A U28A G29C U34A | 0.03 |
| G1C G2C A11G | 0.01 |
| G1C G2C A14U U32C | 0.01 |
| G1C G2C C3A G17A U34G | 0.01 |
| G1C G2C C3U G30A G33C G35U G36C | 0.16 |

| Variant | self-cleavage |
| --- | --- |
| G1C G2C C10G C46A | 0.06 |
| G1C G2C C13G A14U C23U | 0.06 |
| G1C G2C C42G | 0.02 |
| G1C G2C G5U G17A | 0.01 |
| G1C G2C G22U C46U | 0.06 |
| G1C G2C G27C U32G | 0.2 |
| G1C G2C U20A C31U G44U | 0.03 |
| G1C G2C U43A | 0.01 |
| G1C G2U A4C G40C | 0.02 |
| G1C G2U A39U | 0.02 |
| G1C G2U C3A A12C | 0.02 |
| G1C G2U C3A G29A | 0.07 |
| G1C G2U C8A G27U G36C | 0.15 |
| G1C G2U C10G G21A A26U G29U | 0.02 |
| G1C G2U C10U U32G G35U | 0.02 |
| G1C G2U C18G C31A G36C | 0.03 |
| G1C G2U C31U | 0.02 |
| G1C G2U G22A A24G | 0.24 |
| G1C G5A A6G A12C | 0.01 |
| G1C G5A A6G U34G | 0.01 |
| G1C G5A C8U C18A | 0.08 |
| G1C G5A C13A | 0.06 |
| G1C G5A C45G | 0.06 |
| G1C G5A C46U | 0.05 |

| Variant | self-cleavage |
| --- | --- |
| G1C G5A G33C | 0.01 |
| G1C G5C A6G | 0.04 |
| G1C G5C A16G | 0.01 |
| G1C G5C G7A A16U G30A G33U G36C | 0.05 |
| G1C G5C G17A | 0.01 |
| G1C G5C G27C | 0.01 |
| G1C G5C U28A G40A | 0.01 |
| G1C G5U A6C G33C G44U C46U | 0.03 |
| G1C G5U A12U A24G U43C | 0.03 |
| G1C G5U A25C G35C C45G | 0.02 |
| G1C G5U A25G U38A G40C | 0.02 |
| G1C G5U C13U G19A G27U | 0.01 |
| G1C G5U C15A C42U | 0.03 |
| G1C G5U C18G U28C | 0.02 |
| G1C G5U C18U C23G A39G A41U | 0 |
| G1C G5U G7A G33C | 0.04 |
| G1C G5U G19U G35A C37U | 0.01 |
| G1C G5U G27C U28C | 0 |
| G1C G5U G30A | 0.02 |
| G1C G5U G33U C37U C45A | 0.01 |
| G1C G5U G36U | 0 |
| G1C G7A A11G U32A G33C | 0.01 |
| G1C G7A A14C G40C | 0.01 |
| G1C G7A A16U G40C | 0.01 |

| Variant | self-cleavage |
| --- | --- |
| G1C G7A C10U A24G | 0 |
| G1C G7A C15G | 0.01 |
| G1C G7A G17U A26G | 0.14 |
| G1C G7A G27U C46G | 0.02 |
| G1C G7A G30U | 0.01 |
| G1C G7C A11U C13A A14C G21C C42G | 0.02 |
| G1C G7C C10G C15A U32A G33U U34C | 0.02 |
| G1C G7C C15A A26C G27A C45G | 0.01 |
| G1C G7C C15A G22A A39U | 0.02 |
| G1C G7C G22A | 0.05 |
| G1C G7C G33U U34C C46A | 0.05 |
| G1C G7U A11G G29U U38A | 0.01 |
| G1C G7U A25U G35U | 0.03 |
| G1C G7U C10G U20C G21A A25U U38C | 0.01 |
| G1C G7U C10U | 0.01 |
| G1C G7U C15A | 0.01 |
| G1C G7U G17U G19A G30U G33A | 0.02 |
| G1C G7U G19A C37U | 0 |
| G1C G7U G33A G44U | 0.05 |
| G1C G7U G36A | 0.01 |
| G1C G17A A24U A26C C46A | 0.07 |
| G1C G17A C18G | 0.01 |
| G1C G17A G21U G27U | 0.03 |
| G1C G17A G27A U28A | 0 |

| Variant | self-cleavage |
| --- | --- |
| G1C G17C C18A A39G | 0.01 |
| G1C G17C G22A | 0.05 |
| G1C G17C G33U | 0.04 |
| G1C G17U A26U U32A C37U | 0.01 |
| G1C G17U C23A G30C | 0.03 |
| G1C G17U C37G | 0.02 |
| G1C G17U G30A C37A G40U U43C | 0.01 |
| G1C G17U G40U A41U C46G | 0.03 |
| G1C G17U U32C | 0.03 |
| G1C G17U U34G | 0.03 |
| G1C G19A A24G A41C | 0.01 |
| G1C G19A C23G | 0.02 |
| G1C G19A C45A | 0.05 |
| G1C G19A G30C C31A | 0.06 |
| G1C G19C C23A | 0.01 |
| G1C G19C U20G | 0.08 |
| G1C G19C U28C G40A | 0 |
| G1C G19C U38A | 0 |
| G1C G19U C31U | 0.04 |
| G1C G19U C37G U43A C46A | 0 |
| G1C G21A G22A G33C | 0.01 |
| G1C G21C C23G G44A | 0.06 |
| G1C G21C C23U | 0.45 |
| G1C G21U G22A | 0.23 |

| Variant | self-cleavage |
| --- | --- |
| G1C G21U G22U G30C | 0.14 |
| G1C G22A A25G G27U C31A U32A | 0.02 |
| G1C G22A A39U C45G | 0.08 |
| G1C G22A G33A | 0.05 |
| G1C G22A G36A C42U | 0.03 |
| G1C G22C A26C G30U G44C | 0.12 |
| G1C G22C U38G | 0 |
| G1C G22U C23U | 0.32 |
| G1C G22U C23U G30A G36U | 0.02 |
| G1C G22U G30C A41G | 0.03 |
| G1C G22U U32A | 0.03 |
| G1C G22U U34G | 0.01 |
| G1C G27A C31A | 0.03 |
| G1C G27A C37U U43A | 0.03 |
| G1C G27C C37A A41G | 0.02 |
| G1C G27C U32C A41C U43C | 0.01 |
| G1C G27U G33A G35A G40A C45A | 0.02 |
| G1C G29A C46A | 0.61 |
| G1C G29U G36U | 0 |
| G1C G30A U38G A39G C45A | 0 |
| G1C G30C U32G A39C | 0.01 |
| G1C G30U C45G | 0.05 |
| G1C G30U U32C U34C | 0 |
| G1C G33A C42A | 0 |

| Variant | self-cleavage |
| --- | --- |
| G1C G33A C42G | 0.02 |
| G1C G33C G35C C46A | 0.01 |
| G1C G35C A41U | 0.03 |
| G1C G35C U38A U43C | 0.02 |
| G1C G35U C42U | 0.08 |
| G1C G36U A39G C42U | 0 |
| G1C G36U C46G | 0.03 |
| G1C G40U C45U | 0.03 |
| G1C U9A A14G | 0.01 |
| G1C U9A C10A C13U G35A | 0.01 |
| G1C U9A C10G A16C C23G U34G | 0 |
| G1C U9A G19C A24U G29U G40C C45A | 0.04 |
| G1C U9A U20A C45A | 0.03 |
| G1C U9C A11U G35C | 0 |
| G1C U9C A14G | 0 |
| G1C U9C A16U G40U | 0.02 |
| G1C U9C C10U G29U | 0.01 |
| G1C U9C C13G A24C A41U | 0.02 |
| G1C U9C C18A U20A G21A A24C | 0.01 |
| G1C U9C C18G G19U C42U | 0.01 |
| G1C U9C C23A A26G G36U | 0.03 |
| G1C U9C G19C U20A U38C | 0.05 |
| G1C U9G A11U G19A G40U | 0 |
